PubChem BioAssay AID686971 (National Center for Advancing Translational Sciences (NCATS), 2013)
Hit rate of the full screen: of about 360,000 compounds, about 7,500 (2.1%) were called active. Inconclusive means that the source gave no clear call. Such entries were picked first, then a sample of the others. Calls follow the shape of the dose curve; as a rule, active = well fitted cell-killing curve with a large enough effect; inconclusive = small, poorly fitted or top-dose-only effect, or effect the other way, or another doubt; inactive = no such curve, though single readings can be large or run the other way. No potency is given beside an inconclusive call; the fits are too rough.

assay: qHTS for induction of synthetic lethality in tumor cells producing 2HG: qHTS for the HT-1080-IDH1KD cell line; details: HT-1080 IDH1 knockdown viability, ATP luminescence, 48 h; activity, negative = toxicity: at 46.1 µM (top of the series) unless noted;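 as to activity, negative = toxicity: 0% = DMSO wells and -100% = cell-free medium wells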
Summary of the method: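 Knockdown cells (IDH1KD HT-1080) received compounds 2 h after plating at 750 cells/well and were kept 48 h at 37 °C in 5% FBS RPMI. A CellTiter-Glo luminescence read gave % activity for curve fitting.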
Potency is read from the fitted curve at half-maximal effect; tags tell the direction and shape of the fitted curve.

Row | SMILES | Potency | activity, negative = toxicity
1 | O=c1c2ccccc2nc(/C=C/c2ccco2)n1-c1ccccc1O | inactive | 
2 | C=C1C(=O)OC2CC3(C)OC3CCC(C)=CC(OC(C)=O)C12 (stereo not given) | active: 14.6 µM | 
3 | COC(=O)C1=C(c2ccc3ccccc3c2)C[C@@H]2CC[C@H]1N2C(=O)NC1CC1 | inactive | 
4 | O=P(O)(O)Cc1ccccc1OP(=O)(c1ccccc1)c1ccccc1 | inactive | 
5 | CCC(=O)N1N=C(c2c(O)n(CCc3ccccc3)c(=O)[nH]c2=O)CC1c1ccc(OC)c(OC)c1 (stereo not given) | inconclusive [cytotoxic, partial curve] | 
6 | O=C(CSc1nc(-c2ccccc2)c(-c2ccccc2)[nH]1)Nc1nccs1 | inconclusive [cytotoxic, single point] | 
7 | Cc1cccc(CN2CCN(Cc3ccc(Cl)cc3)CC2)c1 | inactive | 
8 | CCN(CC)c1ccc(CNCCc2ccc(F)cc2)cc1 | inconclusive [cytotoxic, single point] | 
9 | Clc1ccc(Cn2ccnc2)cn1 | inactive | 
10 | CC1=C(C(=O)Nc2ccccc2)C(c2ccc(C)cc2)N=C(Nc2nc3ccccc3o2)N1 (stereo not given) | active: 11.2 µM | 
11 | CCOC(=O)C1=C(c2ccccc2)N=c2s/c(=C\c3ccc(O)cc3)c(=O)n2C1c1cccs1 (stereo not given) | inconclusive [cytotoxic, single point] | 
12 | CN1CCCN(C(=O)COc2cccc(C(F)(F)F)c2)CC1 | inactive | 
13 | N#CCCn1cc(C(=O)Nc2ccccc2Cl)c(-c2ccc(F)cc2)n1 | inactive | 
14 | CCOc1cc(CNC2CCCC2)cc(Cl)c1OCc1ccc(F)cc1 | inconclusive [cytotoxic, single point] | 
15 | Cc1cc(N(CCCl)CCCl)ccc1C=Cc1ccncn1 | inconclusive [cytotoxic, partial curve] | 
16 | CCOC(=O)[C@]12Cc3cc(C)ccc3[C@H]1N(C)C(=O)c1cc(OC)ccc12 | active: 16.4 µM | 
17 | COc1cc(/C=C/c2nc3ccccc3c(=O)n2-c2cccc(O)c2)ccc1O | inconclusive [cytotoxic, partial curve] | 
18 | COc1ccccc1-n1c(/C=C/c2ccccn2)nc2ccccc2c1=O | inconclusive [cytotoxic, single point] | 
19 | CCOC(=O)c1c(-n2c(C)cc(C=C3C(=O)NC(=S)NC3=O)c2C)sc2c1CCCC2 | inconclusive [cytotoxic, single point] | 
20 | COc1cc(/C=C(/C#N)c2nc3ccccc3[nH]2)ccc1Oc1ncccc1[N+](=O)[O-] | inconclusive [cytotoxic, single point] | 
21 | c1ccc(CCc2ccc3n2Cc2cnnn2-c2ccccc2-3)cc1 | inconclusive [cytotoxic, single point] | 
22 | O=C(COc1ccc(S(=O)(=O)N2CCOCC2)cc1)Nc1ccc(Cl)c(C(F)(F)F)c1 | inconclusive [cytotoxic, single point] | 
23 | Cc1ccc(C(O)P(=O)(Oc2ccccc2)Oc2ccccc2)cc1 (stereo not given) | inactive | 
24 | C=CCN1C(=O)NC(=O)/C(=C/C=C/c2ccccc2)C1=O | active: 20.6 µM | 

Row | SMILES | Potency | activity, negative = toxicity
25 | COc1ccc2c(c1)c(CCN)c(C)n2Cc1ccccc1 | inconclusive [cytotoxic, single point] | 
26 | O=P(Nc1ccccc1)(Nc1ccccc1)Oc1ccc(Cl)cc1 | inconclusive [cytotoxic, single point] | 
27 | CC/C(=C(\c1ccc(O)cc1)c1ccc(OCCN(C)C)cc1)c1ccccc1 | active: 18.4 µM | 
28 | O=C(Nc1c(Cl)cccc1Cl)Oc1cccc2cccnc12 | active: 3.66 µM | 
29 | Nc1nonc1OCCCCOc1nonc1N | inactive | 
30 | CN(C)C(=Nc1ccccc1)P(=S)(N(C)C)N(C)C |  | inconclusive: 19.7%
31 | COC(=O)c1nc(-c2ccc3c(n2)C(=O)C(N)=C(OC)C3=O)c(N)c(-c2ccc(OC)c(OC)c2O)c1C | inconclusive [cytotoxic, partial curve, poor fit] | 
32 | CCCCC(=O)N/N=C/c1c(O)n(CC)c(=S)n(CC)c1=O | inconclusive [cytotoxic, partial curve] | 
33 | CCn1nc(/C=C/c2ccccc2)nc2c(=O)n(C)c(=O)nc1-2 | active: 1.84 µM | 
34 | CCOc1cccc(=NC2CCCCC2)c2c(C)[nH]c(C)c12 | active: 20.6 µM | 
35 | Cc1ccc(-n2c(C)nc3cc(Cl)ccc3c2=O)nc1 | inactive | 
36 | C[n+]1c2cc(N)ccc2cc2ccc(N)cc21 | active: 2.31 µM | 
37 | CCCCCOc1ccc(C)cc1CN(CCCl)CCCl | inconclusive [cytotoxic, single point] | 
38 | O=C1NC(=O)N(c2ccccc2)C(=O)/C1=C/c1ccc(Sc2ccccc2)o1 | inconclusive [cytotoxic, single point] | 
39 | Oc1ccccc1-[n+]1c(-c2ccccc2)cc(-c2ccccc2)cc1-c1ccccc1 | inconclusive [cytotoxic, partial curve] | 
40 | COc1ccc(C(c2nnnn2C2CCCCC2)N2CCC3(CC2)C(=O)NCN3c2ccccc2)cc1 (stereo not given) | inconclusive [cytotoxic, single point] | 
41 | c1ccc2c(N3CCNCC3)nsc2c1 | inconclusive [cytotoxic, partial curve] | 
42 | Cc1ncc2n1-c1ccc(Cl)cc1C(c1ccccc1F)=NC2 | inconclusive [cytotoxic, single point] | 
43 | Cc1cccc(C2=NCC(=O)N(CC(=O)NCc3ccco3)c3sc4c(c32)CCCC4)c1 | inconclusive [cytotoxic, single point] | 
44 | Cc1cc(C)cc(N2C(=O)NC(=O)/C(=C\c3cccn3-c3ccccc3)C2=O)c1 | inconclusive [cytotoxic, single point] | 
45 | CC1C(c2ccccc2)N(C)C(c2ccccc2)CC1(O)c1ccccc1 (stereo not given) | inconclusive [cytotoxic, single point] | 
46 | CCC(=NCCOc1ccc(Cl)cc1)c1c(O)n(C)c(=O)n(C)c1=O | inactive | 
47 | CC(C)Oc1ccc(CCN)cc1Cl |  | inconclusive: -30.6% [cytotoxic]
48 | O=C1NC(=S)NC(=O)C1=Cc1cccc2cc3ccccc3cc12 | inconclusive [cytotoxic, single point] | 

Row | SMILES | Potency | activity, negative = toxicity
49 | S=C(NCc1ccccc1)NCC1COc2ccccc2O1 (stereo not given) | inconclusive [cytotoxic, single point] | 
50 | CC(C)CCCn1c(O)c(/C=C2/C=CC=N2)c(=O)[nH]c1=O | active: 16.4 µM | 
51 | CC/C(=N\Nc1ccccc1)c1c(O)n(C)c(=O)n(C)c1=O | inconclusive [cytotoxic, full curve] | 
52 | Cc1c(CC(=O)N2C[C@H]3C[C@@H](C2)c2cccc(=O)n2C3)c(=O)oc2cc(O)c(Cl)cc12 | inactive | 
53 | Cc1ccc(S(=O)(=O)c2nc(-c3ccccc3Cl)oc2N(C)C2CCN(C)CC2)cc1 | inconclusive [cytotoxic, single point] | 
54 | O=C(NC1CCCCC1)N1Cc2cc(-c3ccccc3)ccc2-n2nncc2C1 | inconclusive [cytotoxic, single point] | 
55 | Cc1ccccc1N1C(=O)NC(=O)/C(=C\c2cnn(-c3ccccc3)c2)C1=O | inconclusive [cytotoxic, single point] | 
56 | Nc1ccccc1-[n+]1c(-c2ccccc2)cc(-c2ccccc2)cc1-c1ccccc1 | inconclusive [cytotoxic, single point] | 
57 | CCOC(=O)[C@]12Cc3cc(Cl)ccc3[C@H]1N(Cc1ccccc1)C(=O)c1cc(OC)ccc12 | active: 13 µM | 
58 | O=S(=O)(F)c1ccc2nc(-c3cccc(Sc4ccccc4)c3)cc(Cl)c2c1 | inactive | 
59 | CCOC(=O)C(C(=O)OCC)C(Nc1ccc(Br)cc1)c1ccccc1 (stereo not given) | active: 12.6 µM | 
60 | O=C1NC(=O)C(=Cc2ccc(Sc3ccccc3)o2)C(=O)N1 | active: 13 µM | 
61 | COP(=O)(OC)c1nc(-c2cccc3ccccc23)oc1NCCc1ccccc1 | inconclusive [cytotoxic, single point] | 
62 | NC(Cc1ccc(Cl)cc1)c1csc(Nc2ccccn2)n1 (stereo not given) | inconclusive [cytotoxic, partial curve] | 
63 | COc1ccc(C2=CC(c3ccc(OC)c(OC)c3)c3c(c4ccccc4oc3=O)O2)cc1OC (stereo not given) | inconclusive [cytotoxic, partial curve] | 
64 | CN(C)C(=O)C(CCN1CCC(O)(c2ccc(Cl)cc2)CC1)(c1ccccc1)c1ccccc1 | active: 8.2 µM | 
65 | c1ccc2c(c1)CNCc1cnnn1-2 | inactive | 
66 | OC[C@H]1O[C@@H](n2cnc3cc(Cl)c(Cl)cc32)[C@H](O)[C@@H]1O | inconclusive [cytotoxic, single point] | 
67 | NS(=O)(=O)c1ccc(N=Cc2c(O)n(C3CCCCC3)c(=O)n(C3CCCCC3)c2=O)cc1 | inconclusive [cytotoxic, single point] | 
68 | CC(=O)O[C@@H]1/C=C/[C@](C)(O)C[C@@H](C)C/C=C/[C@H]2[C@H](O)C(C)=C(C)[C@H]3[C@H](Cc4ccccc4)NC(=O)[C@@]123 | inconclusive [cytotoxic, full curve] | 
69 | COc1cccc(C(c2nnnn2-c2ccc3c(c2)OCCO3)N2CCC(n3c(=O)[nH]c4ccccc43)CC2)c1OC (stereo not given) | inconclusive [cytotoxic, partial curve] | 
70 | CCOC(=O)[C@]12Cc3c(cc(OC)c(OC)c3OC)[C@H]1N(CCC(=O)OC)C(=O)c1ccccc12 | inconclusive [cytotoxic, single point] | 
